{"source": "PubChem BioAssay AID504832", "about": "(National Center for Advancing Translational Sciences (NCATS), 2011)", "note": "Hit rate of the full screen: of about 310,000 compounds, about 18,000 (5.8%) were called active. Inconclusive results, whose numbers are uncertain, are shown with a selection of clear calls. The call rests on the fitted dose curve; in most records, active means well fitted inhibition curve with a large enough effect; inconclusive means small, poorly fitted or top-dose-only effect, or another doubt; inactive means no such curve, though single readings can be large or run the other way. No potency is given beside an inconclusive call; the fits are too rough. Potency means the concentration at half of the fitted maximal effect; tags describe the fitted curve by direction and shape.", "data": [{"test": "Primary qHTS for delayed death inhibitors of the malarial parasite plastid, 48 hour incubation", "conditions": "P. falciparum luciferase growth in erythrocytes; series mostly up to 28.7 µM", "outline": "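First compound was added to culture medium, then infected red cells at 0.1% parasitemia and 2% hematocrit (final). After incubation at 37 C under 5% CO2, luciferase detection reagent was dispensed and light output recorded.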", "values": [{"smiles": "Cc1nn(-c2ccccc2)c(Cl)c1/C=N/NC(=O)c1ccc(NS(=O)(=O)c2cccs2)cc1", "Potency": "inconclusive [inhibitor, single point]"}, {"smiles": "CCCCn1c(SCC(=O)NCc2ccccc2)nc2ccc(N3CCOCC3)cc2c1=O", "Potency": "active: 11.7 µM"}, {"smiles": "CCCCOc1ccc(C(=O)NCC(=O)N2CCN(Cc3ccc4c(c3)OCO4)CC2)cc1", "Potency": "inconclusive [inhibitor, single point]"}, {"smiles": "Cc1[nH][nH]c(=O)c1/C=N/N1CCOCC1", "Potency": "inconclusive [inhibitor, full curve, poor fit]"}, {"smiles": "Cc1cc(OC(C)C(=O)N2CCN(c3ccc(F)cc3)CC2)c2c(C)cc(=O)oc2c1", "note": "(configuration not stated)", "Potency": "inconclusive [inhibitor, partial curve, poor fit]"}, {"smiles": "Cc1ccc(NC(=O)c2c(C(F)(F)F)nn(C)c2SCc2cccc(C(F)(F)F)c2)cc1C", "Potency": "inconclusive [inhibitor, single point]"}, {"smiles": "Cc1ccc(NC(=O)CCNS(=O)(=O)c2ccc(Br)cc2)cc1S(=O)(=O)N1CCOCC1", "Potency": "inconclusive [inhibitor, partial curve, poor fit]"}, {"smiles": "Cc1ccc(C(=O)N/C(=C/C=C/c2ccccc2)C(=O)NCc2ccco2)cc1", "Potency": "inconclusive [inhibitor, single point]"}, {"smiles": "COc1ccc(C(=O)Nc2c(N)nc(SCC(=O)N3CCCCCC3)[nH]c2=O)cc1OC", "Potency": "inactive"}, {"smiles": "CCOc1cc(CNCCCN2CCOCC2)cc(Cl)c1OCC(=O)NC(C)(C)C", "Potency": "inconclusive [inhibitor, single point]"}, {"smiles": "NC(=O)CNC(=O)[C@@H]1CC2(CC(c3cccc(Br)c3)=NO2)CN1C(=O)c1ccc(Br)cc1", "note": "(some centres not stated)", "Potency": "inactive"}, {"smiles": "Cc1ccc(NC(=O)C2c3ccccc3Oc3ccccc32)c(C)c1", "Potency": "inactive"}, {"smiles": "COc1ccc(N2C(N)=NC(N)=NC2(C)C)cc1", "Potency": "active: 0.0329 µM"}, {"smiles": "COc1ccc(S(=O)(=O)N2CCC(C(=O)NCCN3CCOCC3)CC2)cc1", "Potency": "inactive"}, {"smiles": "N/C(Cn1cncn1)=N\\OC(=O)c1ccc(Cl)cc1Cl", "Potency": "inactive"}, {"smiles": "CC(=O)c1c(C)[nH]c(C(=O)CSc2nc3ccc(C)cc3[nH]2)c1C", "Potency": "inconclusive [inhibitor, single point]"}, {"smiles": "CC(=O)Nc1cccc(-c2csc(N)n2)c1", "Potency": "inactive"}, {"smiles": "Cc1ccc(C(=O)NC(=S)Nc2ccc(N3CCOCC3)cc2)c(C)c1", "Potency": "inconclusive [inhibitor, single point]"}, {"smiles": "O=C(CC1OC(=O)c2ccccc21)Nc1cccc(S(=O)(=O)N2CCCCCC2)c1", "note": "(configuration not stated)", "Potency": "inconclusive [inhibitor, single point]"}, {"smiles": "CCc1ccc(CNC(=O)CCCC(=O)n2nc(C)c3ccccc32)cc1", "Potency": "inactive"}, {"smiles": "COc1cccc(NC(=S)NN2C(C)CCCC2C)c1", "note": "(configuration not stated)", "Potency": "inconclusive [inhibitor, full curve, poor fit]"}, {"smiles": "CC1CCCN(C2=C(NS(=O)(=O)c3ccc(Br)cc3)C(=O)c3ccccc3C2=O)C1", "note": "(configuration not stated)", "Potency": "inconclusive [inhibitor, full curve, poor fit]"}, {"smiles": "CCn1c(COc2ccc(=O)n(-c3ccccc3)n2)nnc1SCc1ccc(C)cc1", "Potency": "inconclusive [inhibitor, partial curve]"}, {"smiles": "CN(C)Cc1c(O)ccc2oc(Cc3ccccc3)cc12", "Potency": "active: 0.415 µM"}, {"smiles": "CC(C)COC(=O)n1c(=O)oc2ccc(S(=O)(=O)N3CCCCC3)cc21", "Potency": "active: 10.4 µM"}, {"smiles": "COc1ccc(N2CCN(C(=O)CSc3nnc4c(C)cc5c(C)cc(C)cc5n34)CC2)cc1", "Potency": "active: 2.94 µM"}, {"smiles": "CCOc1ccc(-n2c(N)c(C(=O)NCc3cccnc3)sc2=S)cc1", "Potency": "inconclusive [inhibitor, single point]"}, {"smiles": "O=C(Nc1ccccc1)N1CCC(C(=O)N2CCN(S(=O)(=O)c3cccc(F)c3)CC2)CC1", "Potency": "inconclusive [inhibitor, partial curve]"}, {"smiles": "NC(=O)C1CCN(C(=O)c2ccc(F)c(S(=O)(=O)N3CCOCC3)c2)CC1", "Potency": "inactive"}, {"smiles": "CCN1CCCC1CNC(=O)c1cc2cc(OC)c(OC)cc2[nH]1", "note": "(configuration not stated)", "Potency": "inactive"}, {"smiles": "CCCCCCCCOC(=O)C[N+](C)(C)C/C=C(/C)Cl", "Potency": "active: 2.62 µM"}, {"smiles": "COc1ccc(CN(Cc2cccnc2)S(=O)(=O)c2ccc(-n3cnnn3)c(C)c2)cc1OC", "Potency": "inconclusive [inhibitor, single point]"}, {"smiles": "O=C(COC(=O)c1ccc[nH]c1=O)NCC12CC3CC(CC(C3)C1)C2", "Potency": "inactive"}, {"smiles": "O=C(C1CCCN(Cc2ccccc2F)C1)N1CCCC1", "note": "(configuration not stated)", "Potency": "inconclusive [inhibitor, full curve, poor fit]"}, {"smiles": "Cc1ccc(C2C3=C(CCCC3=O)Nc3[nH]c(=S)[nH]c(=O)c32)cc1", "note": "(configuration not stated)", "Potency": "inactive"}, {"smiles": "O=C(O)c1ccc2ncsc2c1", "Potency": "inconclusive [inhibitor, partial curve, poor fit]"}, {"smiles": "CCC(O)(C(=O)Nc1ccccc1C(F)(F)F)c1ccccc1OC", "note": "(configuration not stated)", "Potency": "inconclusive [inhibitor, single point]"}, {"smiles": "COc1ccc(-n2c(SC(CN3CCCCC3)CN3CCCC3=O)nc3ccccc3c2=O)cc1", "note": "(configuration not stated)", "Potency": "inconclusive [inhibitor, partial curve, poor fit]"}, {"smiles": "O=c1cc[nH]c(=S)[nH]1", "Potency": "inactive"}, {"smiles": "CCOC(=O)CC1C(=O)NCCN1C(=S)Nc1ccccc1", "note": "(configuration not stated)", "Potency": "inactive"}, {"smiles": "O=C(CSc1nnc(CNC(=O)c2ccco2)o1)Nc1nc2ccccc2s1", "Potency": "inactive"}, {"smiles": "Cc1ccc(S(=O)(=O)N(C)c2ccc(OCC(=O)Nc3ccc(C(=O)N(C)C)cc3)cc2)cc1C", "Potency": "inconclusive [inhibitor, single point]"}, {"smiles": "Cc1ccc(OC(=O)CCC(=O)N2CCc3ccccc32)cc1", "Potency": "inactive"}, {"smiles": "COc1ccccc1C1CCN(c2ccc([N+](=O)[O-])c(OC)c2)CC1", "Potency": "inactive"}, {"smiles": "Cc1ccc(N2CCN(C(=S)c3ccc(-c4ccccc4[N+](=O)[O-])o3)CC2)cc1", "Potency": "inactive"}, {"smiles": "CC(Oc1ccc(Br)cc1)C(=O)N1CCc2ccccc21", "note": "(configuration not stated)", "Potency": "active: 1.47 µM"}, {"smiles": "CC(C)NC(=O)C(=O)NCC(c1ccc2c(c1)OCO2)N1CCOCC1", "note": "(configuration not stated)", "Potency": "inactive"}]}]}
